Measurements as given in a collection of fitness landscapes (doi:10.1016/j.celrep.2020.107928).
Over roughly 81,000 sequences, “one-hybrid fitness for binding parS DNA” has its median near -0.17; the highest 2% begin near 0.51. The list shows a part of the results.

B1: Caulobacter ParB omega fusion; a variant is named by its letters at X, in order, B8GW30 (parent)
chain: MESVVVGEPGMSEGRRGLGRGLSALLGEVDAAPAQAPGEQLGGSREAPIEILQRNPDQPRRTFREEDLEDLSNSIREKGVLQPILVRPSPDTAGEYQIVAGERAWRAAQRAGLKTVPIMVRELDDLAVLEIGIIENVQRADLNVLEEALSYKVLMEKFERTQENIAQTIGKSXSHVANXMRLLXLPDEVQSYLVSGELTAXHARAIAAAADPVALAKQIIEGGLSVRETEALARKAPNLSAGKSKGGRPPRVKDTDTQALESDLSSVLGLDVSIDHRGSTGTLTITYATLEQLDDLCNRLTRGI

Variants of: B1
Assay: one-hybrid fitness for binding parS DNA (scaled: cognate 1, non-cognate 0); higher = stronger binding
Settings: with parS DNA site
Outline: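 Selection: bacterial one-hybrid in E. coli USO, HIS3 reporter with the site 19 bp from the promoter, 48 hours at 37°C on M9-minus-histidine plus 0.1 mM IPTG and 5 mM 3-AT. Libraries were Caulobacter ParB with four randomised specificity codons, sequenced on Illumina before and after selection. Fitness is the rescaled log change in variant-to-wild-type read ratio, anchored to the cognate and non-cognate sites.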

| Variant | one-hybrid fitness for binding parS DNA |
| --- | --- |
| HGTI | ≤ 0.2 |
| WTCV | ≤ 0.2 |
| GFAG | ≤ 0.2 |
| GWCC | ≤ 0.2 |
| PFFE | ≤ 0.2 |
| AQSS | ≤ 0.2 |
| PFYW | ≤ 0.2 |
| CRVN | ≤ 0.2 |
| VLNL | ≤ 0.2 |
| GGRH | ≤ 0.2 |
| WDYG | ≤ 0.2 |
| GEIR | ≤ 0.2 |
| SGVS | ≤ 0.2 |
| AAGF | ≤ 0.2 |
| TQLP | ≤ 0.2 |
| PRGT | ≤ 0.2 |
| SRIS | ≤ 0.2 |
| SREM | ≤ 0.2 |
| TGAW | ≤ 0.2 |
| YASS | ≤ 0.2 |
| RWLN | 0.313 |
| SHIC | ≤ 0.2 |
| SKFG | ≤ 0.2 |
| QTQG | ≤ 0.2 |
| PVMA | ≤ 0.2 |

| Variant | one-hybrid fitness for binding parS DNA |
| --- | --- |
| ADNT | ≤ 0.2 |
| DGPY | ≤ 0.2 |
| TPYM | ≤ 0.2 |
| RKDL | ≤ 0.2 |
| LPTF | ≤ 0.2 |
| RCSC | 0.961 |
| EYLR | ≤ 0.2 |
| SQAI | ≤ 0.2 |
| RCNL | ≤ 0.2 |
| RFEF | ≤ 0.2 |
| MWHS | ≤ 0.2 |
| LMIT | ≤ 0.2 |
| LALM | ≤ 0.2 |
| QSIF | ≤ 0.2 |
| LTNQ | ≤ 0.2 |
| FPTH | ≤ 0.2 |
| IDGR | 0.279 |
| VHDF | ≤ 0.2 |
| AMTF | ≤ 0.2 |
| EFTT | ≤ 0.2 |
| TVNS | ≤ 0.2 |
| RVCM | 0.382 |
| LNAV | ≤ 0.2 |
| QMEG | ≤ 0.2 |
| RVSD | ≤ 0.2 |

| Variant | one-hybrid fitness for binding parS DNA |
| --- | --- |
| MALP | ≤ 0.2 |
| RTQK | ≤ 0.2 |
| QAAW | ≤ 0.2 |
| QKER | ≤ 0.2 |
| VARP | ≤ 0.2 |
| CMEC | ≤ 0.2 |
| VVCT | ≤ 0.2 |
| GWMI | ≤ 0.2 |
| PKGY | ≤ 0.2 |
| QMMA | ≤ 0.2 |
| QTKG | ≤ 0.2 |
| RPEK | ≤ 0.2 |
| TQMI | ≤ 0.2 |
| ACIL | ≤ 0.2 |
| RPGH | ≤ 0.2 |
| GHGM | ≤ 0.2 |
| STLD | ≤ 0.2 |
| VVEF | ≤ 0.2 |
| RSDG | 0.84 |
| NYAN | ≤ 0.2 |
| CHHC | ≤ 0.2 |
| TDSS | ≤ 0.2 |
| APHL | ≤ 0.2 |
| RMGQ | ≤ 0.2 |
| YCSC | ≤ 0.2 |

| Variant | one-hybrid fitness for binding parS DNA |
| --- | --- |
| IPDQ | ≤ 0.2 |
| LVKV | ≤ 0.2 |
| QKMD | ≤ 0.2 |
| PQSH | ≤ 0.2 |
| IMPG | ≤ 0.2 |
| MAGT | ≤ 0.2 |
| YRRH | ≤ 0.2 |
| ATKE | ≤ 0.2 |
| NAVD | ≤ 0.2 |
| KRRV | ≤ 0.2 |
| QLYN | ≤ 0.2 |
| CRQT | ≤ 0.2 |
| TDCC | ≤ 0.2 |
| QQAK | ≤ 0.2 |
| VCRG | ≤ 0.2 |
| YPNE | ≤ 0.2 |
| ELSR | ≤ 0.2 |
| QGTY | ≤ 0.2 |
| WLDG | ≤ 0.2 |
| MRRM | ≤ 0.2 |
| EALL | ≤ 0.2 |
| TFLG | ≤ 0.2 |
